Article PMC7819943, “Rice protein-binding microarrays: a tool to detect cis-acting elements near promoter regions in rice”
The other results are listed elsewhere or left out.

These sequences were tested against T1, OsWOX13 (Oryza sativa, UniProt Q5QMM3 1-267) (assay: protein-binding microarray (RPBM); PBS, 2% BSA, 51.3 ng/ul salmon testes DNA, 50 uM zinc acetate, 200 nM TF, 25 C, 1 h; high values mean tight binding). Settings: protein: recombinant; tags: N-terminal polyhistidine and DsRed monomer fusion (pET32a); label: CyDye5-dUTP incorporated in the synthesized complementary strand; 3' TTTTT single-stranded linker to array surface; dsDNA, one strand shown.
T1 sequence: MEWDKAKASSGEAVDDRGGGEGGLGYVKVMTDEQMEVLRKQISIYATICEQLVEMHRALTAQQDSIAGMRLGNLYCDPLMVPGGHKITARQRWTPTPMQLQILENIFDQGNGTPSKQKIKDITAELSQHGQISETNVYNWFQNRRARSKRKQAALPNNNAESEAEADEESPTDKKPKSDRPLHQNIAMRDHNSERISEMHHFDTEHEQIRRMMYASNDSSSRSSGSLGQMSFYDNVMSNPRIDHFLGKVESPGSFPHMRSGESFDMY
Method in brief: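 The binding signal for each feature is its fluorescence intensity in arbitrary units. An Axon 4000B scanner was used to read a custom Agilent array that had been made double-stranded with Cy5-dUTP primer extension, blocked with 2% BSA, incubated at 25 °C for 1 h with 200 nM protein in PBS, 2% BSA, salmon testes DNA and 50 µM zinc acetate, and washed. The protein was an N-terminal polyhistidine–DsRed transcription factor fusion from E. coli BL21-CodonPlus, purified on Ni–NTA.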

Which binding signal does the source give for “CCTTTAATTATCAATTGTTTTACTTTGCTCTAATACACTTCGGAGTCACCTAGTGCAG” here?
The binding signal was 27600 fluorescence intensity (a.u.).

With “TCCCTAATAGCTTATAAACTATATAAGAGATATGTACATTCGGAGTCACCTAGTGCAG” as the sequence, how does the binding signal read?
The binding signal was 4310 fluorescence intensity (a.u.).

For “CAATATTATAATTGTGTTAGATAGAGTATCACTATATTGCCGGAGTCACCTAGTGCAG”, which binding signal is on record?
The binding signal was 8920 fluorescence intensity (a.u.).

With “TATCAAATTATCATACCTGATACCCGATACTAGGTATGGCCGGAGTCACCTAGTGCAG” as the sequence, how does the binding signal read?
The binding signal was 5390 fluorescence intensity (a.u.).

For “GATGATGTGACTGAAATGTTGTGTGTTTATGACAGATTGACGGAGTCACCTAGTGCAG”, which binding signal is on record?
Its binding signal is 17400 fluorescence intensity (a.u.).

For “AAAATATATAATTAAACAGTTAATGACATACCTCTGGTTTCGGAGTCACCTAGTGCAG”, which binding signal is on record?
Its binding signal is 19500 fluorescence intensity (a.u.).

Which binding signal does the source give for “GTGCATAATTCGATTGAATGATACAGTGATACACAATCTGCGGAGTCACCTAGTGCAG” here?
Its binding signal is 10200 fluorescence intensity (a.u.).

With “GGTCCAATCAAACGGTCATTCTTGTGTTTTCCCTGTGTTTCGGAGTCACCTAGTGCAG” as the sequence, how does the binding signal read?
Its binding signal is 13000 fluorescence intensity (a.u.).

Which binding signal does the source give for “TGAGGTTGATCAATCAACATGGCGAGACCTAGCTCCGGTGCGGAGTCACCTAGTGCAG” here?
The binding signal was 13300 fluorescence intensity (a.u.).

With “TAATAATATAATAGATTGTGTTCAACATTTAACCGTTATCCGGAGTCACCTAGTGCAG” as the sequence, how does the binding signal read?
Its binding signal is 15400 fluorescence intensity (a.u.).

With “CATGATCATCATGAATCAATCACCCGCCGTCCGTTGCATCCGGAGTCACCTAGTGCAG” as the sequence, how does the binding signal read?
The binding signal was 31300 fluorescence intensity (a.u.).

For “GATCAATAATTGAATATATTTTAATAATAAATTTGTCTTGCGGAGTCACCTAGTGCAG”, which binding signal is on record?
Its binding signal is 55500 fluorescence intensity (a.u.).

For “CTGAAGCAAATTAGTTAGAGGCCATCAAGCAATTTCGCAGCGGAGTCACCTAGTGCAG”, which binding signal is on record?
The binding signal was 3340 fluorescence intensity (a.u.).

For “CTAAATTCCCTATCAATTTCCACCACCTCTACCAAACAAGCGGAGTCACCTAGTGCAG”, which binding signal is on record?
The binding signal was 15700 fluorescence intensity (a.u.).

How did the binding signal turn out when “CTGCCCCTTGGTAATTAATAATGTTAATGACACTAGTAATCGGAGTCACCTAGTGCAG” was run?
The binding signal was 3460 fluorescence intensity (a.u.).

With “TATTTCAAATTTTAATTAATATCGTATTGGGTTCTTATATCGGAGTCACCTAGTGCAG” as the sequence, how does the binding signal read?
The binding signal was 5540 fluorescence intensity (a.u.).

For “AACCAGTTATAACAAATAGAAAATTATTTGCTTAATGTGCCGGAGTCACCTAGTGCAG”, which binding signal is on record?
Its binding signal is 5990 fluorescence intensity (a.u.).

With “AATTGATATGGGATTTCGTGGTTGTACTTGCAGTGGGCGACGGAGTCACCTAGTGCAG” as the sequence, how does the binding signal read?
The binding signal was 3820 fluorescence intensity (a.u.).

Which binding signal does the source give for “TAAAGAAAACCAATCAATCGGAACGACTACTATACTCTCCCGGAGTCACCTAGTGCAG” here?
Its binding signal is 7680 fluorescence intensity (a.u.).

For “GATTAACTAACACTAATGGGTAATCTCCGGAGGCAAATCACGGAGTCACCTAGTGCAG”, which binding signal is on record?
Its binding signal is 12400 fluorescence intensity (a.u.).

How did the binding signal turn out when “ACCCTGAATTTTCGTGTCTAAATTTAACTGTCCGTCTTATCGGAGTCACCTAGTGCAG” was run?
Its binding signal is 10700 fluorescence intensity (a.u.).

For “GATCGTAACTGGATTGATCGATCCACCATGCCTAATGGGTCGGAGTCACCTAGTGCAG”, which binding signal is on record?
Its binding signal is 18700 fluorescence intensity (a.u.).

Which binding signal does the source give for “AAATAATTGTTGCCATTGATTATTTTCCTTCTCAAAGTTACGGAGTCACCTAGTGCAG” here?
Its binding signal is 18000 fluorescence intensity (a.u.).

With “TTTGGGATTATTATAATCTAGATTATTGAGTCATATTACTCGGAGTCACCTAGTGCAG” as the sequence, how does the binding signal read?
Its binding signal is 10300 fluorescence intensity (a.u.).

With “TTCAAATTATAATGTATACTCAAATAGAATCCGATCAAATCGGAGTCACCTAGTGCAG” as the sequence, how does the binding signal read?
Its binding signal is 3480 fluorescence intensity (a.u.).

For “AAAAGTTTGACTAGAACGGCAAACCCGAGTAGAAGATTGACGGAGTCACCTAGTGCAG”, which binding signal is on record?
The binding signal was 6130 fluorescence intensity (a.u.).

With “CATAGGATCAATTTAATATATTGACATGCCATTAGGCCATCGGAGTCACCTAGTGCAG” as the sequence, how does the binding signal read?
The binding signal was 10600 fluorescence intensity (a.u.).

How did the binding signal turn out when “TTAATAATCTGTTAGACATAATCATCTAGGGTATAACCTGCGGAGTCACCTAGTGCAG” was run?
Its binding signal is 14200 fluorescence intensity (a.u.).

How did the binding signal turn out when “AGGACTGCAGTAACTACGGTAATTTCCTTGCTGACAGAAACGGAGTCACCTAGTGCAG” was run?
Its binding signal is 4760 fluorescence intensity (a.u.).

With “TCTTATTAGCACATGATTAATTAAGTATTAACTATTATGACGGAGTCACCTAGTGCAG” as the sequence, how does the binding signal read?
The binding signal was 20200 fluorescence intensity (a.u.).

Which binding signal does the source give for “GAAATCAAATTAAATTTAATCGGCTAAAACCATATTTCATCGGAGTCACCTAGTGCAG” here?
Its binding signal is 27000 fluorescence intensity (a.u.).

With “TAATAATTAAAATTTAATTAATTATATGCTAATTACTTTCCGGAGTCACCTAGTGCAG” as the sequence, how does the binding signal read?
Its binding signal is 24000 fluorescence intensity (a.u.).

With “ATGTAAATTTATTTGGGACTTACATATGTAATTTTGCGACCGGAGTCACCTAGTGCAG” as the sequence, how does the binding signal read?
The binding signal was 24700 fluorescence intensity (a.u.).

For “TTAACTTTGAATTTTCATGATTTATTATCTATTAATCTATCGGAGTCACCTAGTGCAG”, which binding signal is on record?
Its binding signal is 3380 fluorescence intensity (a.u.).

For “ACAAAATAAAATGATGGGCATTTTCTTCAGTTACAATTTCCGGAGTCACCTAGTGCAG”, which binding signal is on record?
Its binding signal is 3910 fluorescence intensity (a.u.).

“ATAACTTATAATTGGATCTCACTGGTGACTGAACCAAGGACGGAGTCACCTAGTGCAG” was tested. Which binding signal did it give?
Its binding signal is 15400 fluorescence intensity (a.u.).

How did the binding signal turn out when “TCTGATTATGACTCGATTCAATTAGCAGCAACGACTAATGCGGAGTCACCTAGTGCAG” was run?
The binding signal was 46700 fluorescence intensity (a.u.).

How did the binding signal turn out when “AAGACTAGATCTATAAATTTATGTACACTAGAGTCTTTGTCGGAGTCACCTAGTGCAG” was run?
The binding signal was 3750 fluorescence intensity (a.u.).

How did the binding signal turn out when “AGTTAATTATCTAGCTAGTGGAAGCTCCACATATATAATCCGGAGTCACCTAGTGCAG” was run?
The binding signal was 18200 fluorescence intensity (a.u.).

With “TCTAAACTAATCTAATCTAGCAACGCGATTTAGCCGATACCGGAGTCACCTAGTGCAG” as the sequence, how does the binding signal read?
Its binding signal is 9190 fluorescence intensity (a.u.).

Which binding signal does the source give for “ATTCATTAGGGTGTAATTTGTAAATTGTCTTGAGTCTTTACGGAGTCACCTAGTGCAG” here?
The binding signal was 5930 fluorescence intensity (a.u.).

“ATCGTGATTGATGGCATTGGTATAGATTTCGAGCATTGGCCGGAGTCACCTAGTGCAG” was tested. Which binding signal did it give?
The binding signal was 63900 fluorescence intensity (a.u.).
